Source: patent US20230310636A1, “COMBINATION THERAPIES FOR TREATMENT OF CANCER WITH THERAPEUTIC BINDING MOLECULES” (MedImmune Limited, priority 2022, published 2023)

Legend:
[1] = tested on: HBCx-39 model (high B7-H4-expressing, BRCA WT); assay: TNBC PDX efficacy, HBCx-39; type: in vivo, mice; settings: E02-GL-SG3932 monotherapy, single 1.25 mg/kg IV; FIG. 12A
Method: Tumors were established as described in Example 6, and treatments were administered at the doses indicated in each panel. ADCs were delivered as a single bolus IV injection, and AZD5305 was delivered by oral gavage once daily for 28 days. FIGS. 12A-12B: Antitumor efficacy resulting from (A) 1.25 mg/kg or (B) 3.5 mg/kg ADC treatment alone or in combination with AZD5305 in the high B7-H4-expressing BRCA WT HBCx-39 model. FIGS. 12C-12D: Activity resulting from treatment of (C) high B7-H4-expressing BRCA1-mutant HBCx-24 and (D) BRCA1-hypomorphic HBCx-11 models. FIGS. 12E-12F: Efficacy resulting from treatment of (E) HBCx-8, a BRCA1-mutant model, and (F) HBCx-2, a BRCA WT model with low B7-H4 expression.
PDX models of human TNBC were established through subcutaneous implantation of tumor fragments into the flank of athymic nude mice (Envigo, Riom, France) and tested at Xentech (Evry, France). […] Antitumor activity was determined on the last day, at which time all mice in the untreated control group remained in the study. If the end tumor volume (ETV) in the treatment group was less than the initial tumor volume (ITV), the antitumor response from baseline was calculated from the group means by using the formula
Otherwise, the antitumor response was expressed as percent change in tumor volume in the treatment arm relative to that in the untreated control arm, calculated by the formula

[2] = tested on: MDA-MB-468 breast cancer xenografts; assay: MDA-MB-468 breast cancer xenograft, ADC with AZD5305; type: in vivo, mice; settings: E02-GL-SG3932 individually, 0.1 mg/kg and 1 mg/kg, single IV; FIG. 7
Method: MDA-MB-468 cells were injected 5×10^6 per mouse into the mammary fat pad of female CB-17 SCID mice. […] Tumor and body weight measurements were recorded twice weekly for the duration of the study.
All animal experiments were conducted in a facility accredited by the Association for Assessment and Accreditation of Laboratory Animal Care under the guidelines of AstraZeneca's Institutional Animal Care and Use Committee and appropriate animal research approvals. Cell line xenograft models were established through subcutaneous implantation of cells in 50% Matrigel (Corning, Corning, NY, USA) in either the right mammary fat pad (MX-1, MDA-MB-468) or left flank (HT29, HT29-huB7-H4) of female CB-17 mice (Envigo, Frederick, MD, USA). When tumor volume reached 150-200 mm^3, mice were randomized and given a single intravenous (IV) injection of vehicle control (20 mM histidine, pH 6; 240 mM sucrose; 0.02% PS-80) or ADCs. Body weight and tumor measurements were determined once or twice weekly, and tumor volume was calculated with the formula

B1: E02-GL-SG3932: E02-GL anti-B7-H4 antibody conjugated to the topoisomerase I payload SG3932, average DAR of 8 (conjugate)
heavy: QVQLQQWGAGLLKPSETLSLACTVYGGSFSGYYWNWIRQPPGKGLEWIGEINHSGSTSYNPSLKSRVTISVDTSKNQFSLKLSSVTAADTAVYYCARVLYNWNVDSWGQGTLVTVSSASTKGPSVFPLAPSSKSTSGGTAALGCLVKDYFPEPVTVSWNSGALTSGVHTFPAVLQSSGLYSLSSVVTVPSSSLGTQTYICNVNHKPSNTKVDKRV[not shown - human IgG1 Fc]
light: DIQMTQSPSSLSASVGDRVTITCRASQDIRNDVGWYQQKPGKAPKRLIYAASRLQSGVPSRFSGSGSGTEFTLTISSLQPEDFATYYCLQHNSYPRTFGQGTKVEIKRTVAAPSVFIFPPSDEQLKSGTASVVCLLNNFYPREAKVQWKVDNALQSGNSQESVTEQDSKDSTYSLSSTLTLSKADYEKHKVYACEVTHQGLSSPVTKSFNRGEC
TGI [1]: 24.5%
anti-tumor activity in vivo (tumor size over time) [2]: little to no anti-tumor activity
